Measurements reported in the supplement of paper PMC11417369.
± gives the standard deviation of the averaged measurements. The list shows a part of the results.

System: PfAP2-EXP AP2 domain (GST-tagged)
Assay: gcPBM binding intensity (ln(normalized median fluorescence intensity)); higher = stronger DNA binding
Outline: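 Binding intensity is defined as the maximum Masliner-normalised natural-log median intensity across replicate spots for either probe orientation. It was measured on an Agilent 4 × 180k array of primer-extended double-stranded 36-bp intergenic genomic probes and negative controls, to which GST-tagged P. falciparum DNA-binding domains made in E. coli were applied for 1 h in 1× PBS with 1% milk, 0.2 mg/ml BSA, 0.5% salmon testes DNA and 0.03% Triton X-100. Detection was by Alexa488 anti-GST antibody and scanning at 488 nm.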

Row | Sequence | gcPBM binding intensity (ln)
1 | TAAAAAATTACATATTGTACAGGCAAAATTACACAT [XGTACX_site1152] | 8.67 ± 0.54
2 | ATATTTCATTTTTGTACACACAACGTTGGAGGGTTT [CACACA_site3043] | 8.89 ± 0.53
3 | AAAGGAAATAAAAACGCACACAGAAATAATATCTAT [CACACA_site457] | 8.8 ± 0.56
4 | TCATATAAATACACGTGTACATATATATATTACAGT [XGTACX_site1954] | 8.74 ± 0.071
5 | AGTTTGCATATGGAAGTGCATTACCTTGAACATCAT | 8.57 ± 0.26
6 | AATATAAAAAATAGTTGTACTATATTTAAATATGAC [XGTACX_site2937] | 8.43 ± 0.35
7 | AAAAAATATATATGCACACACAAAAAAACAAATTAA [CACACA_site1278] | 8.78 ± 0.38
8 | AAGGAATAGGCATATACACACAGGTACAGATATATA [CACACA_site4402] | 8.85 ± 0.43
9 | TTTAAATATTACATATGTACTTATAAATATATATAT [XGTACX_site1284] | 9.165 ± 0.021
10 | AAAAAAAAAAAAAACACACAAATCATAAATAAATAT [CACACA_site6362] | 8.46 ± 0.56
11 | TAATAGTATATAAAAAGTACATAATAAGATATGAAA [XGTACX_site1000] | 8.58 ± 0.4
12 | AAAAAAAAAATTGAAAGTACAAATATGTATTATATA [XGTACX_site2455] | 8.27 ± 0.42
13 | TAAAATATGTCATGTGGTACATGAATAGCTTTTATT [XGTACX_site3809] | 8.23 ± 0.32
14 | ATTATGTGCCAATACACACACACATATATATATATA [CACACA_site468] | 9.91 ± 0.44
15 | ATATAAAAAAATAAAACACACACATATATATTATAT [CACACA_site8909] | 8.68 ± 0.42
16 | ATTTAAGCATTATTTTGTACGAAAATAAAAAAATGA [XGTACX_site6958] | 8.55 ± 0.38
17 | TTTTTGTTATATAAAGTGCAGTGACAAGCAGTTTAA | 8.65 ± 0.27
18 | AGTGGTGTTAAATGTTGTACGATTTTGTGTTATTCG [XGTACX_site178] | 8.82 ± 0.6
19 | ATATATATATAATATAGTACGTATAATATATGAATC [XGTACX_site4385] | 9.34 ± 0.32
20 | AAAGGAAAATGTGTAAAAAGAAATGCTAGGTATATA [GTGCAC_negctrl_site699] | 8.93 ± 0.42

Row | Sequence | gcPBM binding intensity (ln)
21 | TATAATGCTCTTCTTTGTACATATTATGATTATATT [XGTACX_site2332] | 8.97 ± 0.38
22 | TATGTATAATTTCATTGTACTTTTGATATTATCATA [XGTACX_site280] | 8.25 ± 0.37
23 | TATTAGAACATATATGCATGCAATAGATATTCCAAT [TGCATGCA_site297] | 9.875 ± 0.064
24 | TTTCTAAAAATAAGAACACACACATATAAGCATATA [CACACA_site8714] | 8.6 ± 0.64
25 | TTTTTTTAAATATACACACACATTTATACAGATATA [CACACA_site5811] | 8.41 ± 0.4
26 | AGTCTGAATAAAATTACACACATATACAGATATATA [CACACA_site5054] | 8.26 ± 0.4
27 | ATATCATTTTCTAGCACACACATTGTTATTACCTTG [CACACA_site902] | 8.91 ± 0.38
28 | AAGATAATCACAAAATGTACAGGAAATATGACAACC [XGTACX_site3607] | 9.07 ± 0.5
29 | TATGTAACAAAAAAAAGTACACATATATATAGTGTA [XGTACX_site7772] | 8.52 ± 0.39
30 | ACTGCGTTTTTACACGCGCACTGCAATGAACAATAT | 8.56 ± 0.33
31 | TTTTCTAAATTAATAATACACACTTGCTAAAATCAT [CACACA_site3207] | 8.34 ± 0.49
32 | AATGGTATAAACAATACACACATAATATATATATTG [CACACA_site4997] | 8.53 ± 0.4
33 | AAGAAAAAGGAACGGAAAAACAAACAAGGGGCCCAA [TGCATGCA_negctrl_site4] | 8.81 ± 0.71
34 | ATTTTTTTTATGAGGTGTACTCATATAATAACTACA [XGTACX_site5074] | 8.83 ± 0.18
35 | TATTTTTTTTTTTAATGTACAAACAAATTATGTTGG [XGTACX_site2873] | 8.43 ± 0.59
36 | TTTTCTAAAGTAAGTTAAGATATGCAAAAAAAAGAA [GTGCAC_negctrl_site242] | 8.91 ± 0.46
37 | TATAAAAGGTAAGAGTGTACAAGTAAAAAATTTTTA [XGTACX_site771] | 8.94 ± 0.39
38 | AATAAAAATTGGTAGGCACACATGGAACTATTAAAA [CACACA_site1257] | 8.86 ± 0.42
39 | ATGAACTATATTAAATCACACATTATCATTTTATAT [CACACA_site4989] | 8.39 ± 0.35
40 | TCGTATATGGATTTTGCACACAATTATAATTTAAAT [CACACA_site868] | 9.04 ± 0.35

Row | Sequence | gcPBM binding intensity (ln)
41 | TATCCCTTAGAATACACACCCATATGAGCGTGAACT [CACACA_site2951] | 8.37 ± 0.54
42 | TATATATTTTAAAATAGTACATATTATATAACCCAT [XGTACX_site2194] | 8.73 ± 0.43
43 | ATATATATATATATATGTACACATTAATGTTTTTTT [XGTACX_site167] | 10.4 ± 0.24
44 | AAAACTTGTCAGAATGGACACACGAATTAAAGGCCT [CACACA_site1215] | 8.79 ± 0.52
45 | TTATTTTTTATTATGTGTACATAACATCGCGATACA [XGTACX_site4359] | 8.95 ± 0.47
46 | GATTTAGTTATTTAAACATGCAATTTATATAGAATT [TGCATGCA_site47] | 8.66 ± 0.34
47 | CAACATTCGTATATCACACATTTGCATGTTGTCAAT [CACACA_site4470] | 8.79 ± 0.35
48 | TATTTATACATACATACACACATATAGATTTATATT [CACACA_site7851] | 8.54 ± 0.4
49 | ATAAAATATATATTAGTGCACTAAAGGAAAAAAAAT | 9.7 ± 0.31
50 | AATATATATATTAGAGTGCACATAATTATTTGCTAA | 8.77 ± 0.24
51 | TATGTCAAATATATATGTACACAAATATACTATTAA [XGTACX_site2643] | 8.19 ± 0.3
52 | TGATATATATATATATATATAACACACGCAAAAAAA [TGCATGCA_negctrl_site240] | 8.73 ± 0.51
53 | AAAAATTTCATATTCACACACAAAAAAAAAAAATAT [CACACA_site1592] | 8.59 ± 0.66
54 | ATAATCACAAATAATTGTACATTTTGTTATATATAT [XGTACX_site7704] | 8.45 ± 0.28
55 | ATATGATATATATTCGGTACACATATATATAAAGAG [XGTACX_site430] | 8.82 ± 0.28
56 | TTTTTAATTTATTGTGTGCACACAACTATGAGTTTT | 8.81 ± 0.28
57 | AAGTTTTCTTAAAATTGTACTTTTCAAAAATAATCT [XGTACX_site277] | 7.99 ± 0.3
58 | ATTTAAATAATATTCACACACAAAATTATATTTTAA [CACACA_site219] | 8.14 ± 0.46
